Data from PubChem BioAssay AID463173 (ICCB-Longwood Screening Facility, Harvard Medical School, 2010).
Hit rate of the full screen: of about 52,000 compounds, about 4,300 (8.3%) were called active. Rule as the data show it: active = survival mostly below about 52% (no sharp cut-off); inactive = mostly above about 56%. Some of the results follow.

system: DeltatarO mutant; assay: S. aureus survival, RN4220 and DeltatarO strains – OD600, teichoic acid synthesis inhibitors, primary screen (AID 463173); conditions: S. aureus RN4220 wild type/DeltatarO growth, OD600, 18 h, hits give low values, screened at 18.75 µg/mL (by protocol)

SMILES | survival
CCC(Sc1ncnc2sc3c(c12)CCCC3)C(=O)OCC(C)C (configuration not stated) | active: -6%
CC(C)(C)C(=O)Nc1ccc2nc(SCCOc3ccccc3Cl)sc2c1 | inactive: 89%
Cc1ccc(C)c(N2CCN(C(=O)C3CCC(CNS(=O)(=O)c4ccc(Br)s4)CC3)CC2)c1 (configuration not stated) | inactive: 67%
COc1cccc(NC(=O)Cn2c(=O)n(CCCCC(=O)NCc3ccc4c(c3)OCO4)c(=O)c3ccccc32)c1 | inactive: 84%
COc1ccc(CCN2C(=O)N(c3ccc(C)cc3)C(=O)C2CC(=O)Nc2ccc(OC)cc2)cc1 (configuration not stated) | inactive: 69%
CCOC(=O)C1CCCN(C(=O)Cn2ncc3c4ccccc4n(C)c3c2=O)C1 (configuration not stated) | inactive: 121%
COc1cc(NC(=O)c2cc(S(=O)(=O)N3CCC(C)CC3)cn2C)cc(OC)c1OC | inactive: 102%
Cc1cccc(NC(=O)CN2C(=O)CC(c3ccccc3)Sc3ccccc32)c1 (configuration not stated) | inactive: 76%
Cc1ccccc1NC(=O)Cn1nnc(C(=O)NCc2cccs2)c1N | inactive: 91%
Cc1ccc(NC(=O)CCc2c(C)nc3ncnn3c2C)cc1Cl | inactive: 105%
CCc1ccc(NS(=O)(=O)c2ccc(NC(=O)N3CCCC3)cc2)cc1 | inactive: 95%
Cc1ccc(C)c(CSc2cn(CCNC(=O)c3cccs3)c3ccccc23)c1 | inactive: 71%
CCc1ccc(NC(=O)Cn2nnc(C(=O)Nc3ccc(F)cc3)c2N)cc1 | inactive: 99%
O=C(Nc1cccc(O)c1)c1cc(-c2ccccc2F)no1 | inactive: 82%
CC(CNC(=O)c1csc2c1CCCCC2)c1ccccc1 (configuration not stated) | active: -1%
CCOc1ccccc1NC(=O)NCc1noc2ccc(C)cc12 | active: 35%
COc1cccc2c1cc1c(=O)n(CC(=O)NCc3ccc(N(C)C)cc3)nc(C)n12 | inactive: 94%
COc1cc(C(=O)NCC(c2ccc3c(c2)OCO3)N2CCN(C)CC2)cc(OC)c1OC (configuration not stated) | inactive: 94%
CC(C)c1ccc2oc(-c3cc(NC(=O)c4cccnc4)ccc3Cl)nc2c1 | active: -2%

SMILES | survival
Cc1ccc(N2CC(C(=O)NCc3nnnn3-c3ccc(C)c(C)c3)CC2=O)cc1C (configuration not stated) | inactive: 75%
O=c1n(Cc2ccc(Cl)cc2)nc2n1-c1ccccc1OC2 | inactive: 71%
COc1cccc(NC(=O)c2sc3nc(C)c(C(=O)Nc4ccc(C)cc4C)c(-c4ccc(C)o4)c3c2N)c1 | active: 39%
CCC1CCCCN1CCCNC(=O)c1c(C)oc2ncn(CC(C)C)c(=O)c12 (configuration not stated) | inactive: 89%
O=C(O)c1ccc(NS(=O)(=O)c2ccc(N3C(=O)CCC3=O)cc2)cc1 | inactive: 103%
CC(C)(O)C1Cc2cc(/C=C/C(=O)O)c(O)cc2O1 (configuration not stated) | inactive: 88%
Cc1ccc(S(=O)(=O)NC(CO)C(=O)O)cc1 (configuration not stated) | inactive: 101%
Cc1cccc2c(=O)cc(CSc3ccccc3NC(=O)c3cccc(Br)c3)[nH]c12 | inactive: 86%
O=C(Nc1cccc(F)c1)C1CCN(S(=O)(=O)c2ccc3[nH]c4c(c3c2)CCCCC4)CC1 | inactive: 89%
COc1ccc(NC(=O)CSc2nc3nc(C)cc(C)n3n2)cc1OC | inactive: 87%
COc1ccc(NC(=O)C2CCCN(c3cnccn3)C2)c(OC)c1 (configuration not stated) | inactive: 107%
CCC(Cc1ccccc1)NC(=O)CCS(=O)(=O)c1cc2c(cc1Cl)NC(=O)CO2 (configuration not stated) | inactive: 91%
CCOc1ccc(CNC(=O)Nc2ccc3c(c2)N(C)C(=O)c2ccccc2S3)cc1 | inactive: 75%
Cc1ccc(NC(=O)CSc2cn(CC(=O)N3CCOCC3)c3ccccc23)cc1Cl | inactive: 88%
CCC(C)n1c(=N)c(C(=O)NC2CCCC2)cc2c(=O)n3ccccc3nc21 (configuration not stated) | inactive: 65%
COc1cccc(N2CCN(C(=O)c3cc4c(=O)n(Cc5cccnc5)ccc4nc3C)CC2)c1 | inactive: 102%
COc1ccc(NC(=O)Cn2c(SCc3ccc(F)cc3)nc3cccnc32)c(OC)c1 | inactive: 76%
CC1CCn2c(nc3cc(C(=O)NCCc4ccccc4)ccc32)C1 (configuration not stated) | inactive: 84%
COC(=O)c1ccccc1NC(=O)CCC(=O)N1CC(C)Sc2ccccc21 (configuration not stated) | active: 42%

SMILES | survival
Cc1ccc2c(=O)cc(C(=O)Nc3ccc(S(=O)(=O)N4CCCCC4)cc3)oc2c1 | inactive: 58%
COC(=O)C(NC(=O)CCc1c(C)nc2cc(-c3cccc(F)c3)nn2c1C)C(C)C (configuration not stated) | inactive: 73%
CCCn1cc(S(=O)(=O)c2ccccc2)c(=O)c2cc(F)c(N3CCCCCC3)cc21 | inactive: 67%
O=C(Cn1cc2c(n1)CCCC2)Nc1cc(C(F)(F)F)ccc1Cl | inactive: 87%
Cc1nc(SCc2ccccc2Cl)c(C#N)c(C)c1C | inactive: 48%
Cc1cc(C)cc(NC(=O)c2sc3nc4n(c(=O)c3c2C)N=C(c2ccc(F)cc2)CS4)c1 | inactive: 124%
COc1ccc2sc(N(Cc3cccnc3)C(=O)c3cccs3)nc2c1 | inactive: 76%
Cn1c(=O)c2nc3ccc(NC(=O)C(F)(F)F)cc3nc2n(C)c1=O | inactive: 54%
Cc1ccc2c(c1)C(c1ccccc1)N(C(=O)c1ccc(S(=O)(=O)N3CCCC3)cc1)CC(=O)N2 (configuration not stated) | inactive: 65%
Cc1ccc(NC(=O)CN2C(=O)CSc3ccc(S(=O)(=O)N(C)C)cc32)c(C)c1 | inactive: 73%
O=S(=O)(c1ccccc1)c1nnn2c1nc(N1CCN(c3ccccc3)CC1)c1cc(Cl)ccc12 | inactive: 91%
COc1ccc2sc(N(Cc3cccnc3)C(=O)C3COc4ccccc4O3)nc2c1 (configuration not stated) | inactive: 86%
Cc1ccc(-n2ncc3c(NC4CCCC4)ncnc32)cc1 | inactive: 80%
CCOC(=O)/C(C#N)=C/c1ccc(-c2ccccc2)o1 | inactive: 52%
CCOc1ccc(OCC)c(NC(=O)c2cnn(-c3ccc(F)cc3)c2C2CCN(C(=O)OC(C)(C)C)CC2)c1 | inactive: 55%
CCOC(=O)C1CCCN(C(=O)Cn2ncc3c(C)n(Cc4ccc(F)cc4)c(C)c3c2=O)C1 (configuration not stated) | inactive: 106%
C=CCn1c(C)c(/C=C/C2=CCN(C)CC2)c2ccccc21 | inactive: 78%
O=C(Nc1ccc2nc(SCCOc3ccccc3Cl)sc2c1)c1ccco1 | active: 14%
COc1cccc(-c2nn(C)c3sc(C(=O)NCCc4cccc(C)c4)cc23)c1 | inactive: 130%
